The other results are listed elsewhere or left out.

One experiment has as its system HepG2. Nature of the experiment: cytotoxicity call (relative viability < 0.9). The conditions noted are these: 10 µM.
Take `O=C(C[C@@H]1CC[C@@H]2[C@H](COC[C@@H](O)CN2Cc2ccccc2F)O1)N[C@@H]1CCN(Cc2ccccc2)C1`: the cytotoxicity call is “inactive”.

As for `COc1cccc(NC(=O)N[C@H]2C=C[C@@H](CC(=O)N3CCOCC3)O[C@@H]2CO)c1`, the cytotoxicity call was “inactive”.

Take `C[C@@H]1CN([C@H](C)CO)C(=O)Cc2cc(NS(=O)(=O)c3ccccc3)ccc2O[C@@H]1CN(C)Cc1ccc(C(=O)O)cc1`: the cytotoxicity call is “inactive”.

On to `C[C@@H]1CN([C@H](C)CO)C(=O)c2cc(-c3ccncc3)cnc2O[C@H]1CN(C)S(=O)(=O)c1ccccc1`, for which the cytotoxicity call was “inactive”.

In the case of `C[C@H](CO)N1C[C@H](C)[C@H](CN(C)C(=O)CN2CCOCC2)Oc2ncc(/C=C/c3ccccc3)cc2C1=O`, the cytotoxicity call was “inactive”.

The test system of a further experiment is S. aureus RN4220. The experiment can be described thus: growth inhibition call (relative growth <= 0.2). The conditions noted are these: 50 µM.
With `CN(C)CCCNC(=O)C[C@H]1CC[C@@H]2[C@H](COc3ccc(NC(=O)c4ccc5c(c4)OCO5)cc3C(=O)N2C)O1`, the growth inhibition call is “inactive”.

Regarding `Cl.OC(CNCC(O)C1CCc2cc(F)ccc2O1)C1CCc2cc(F)ccc2O1` (stereo not given), the growth inhibition call was “inactive”.

`CC1(C)CC(Nc2ccc(Nc3ccccc3)cc2)CC(C)(C)N1`: the growth inhibition call was “inactive”.

For the molecule `O=C(C[C@@H]1C[C@@H]2c3cc(NC(=O)NC4CCCC4)ccc3O[C@@H]2[C@H](CO)O1)NCc1ccc(Oc2ccccc2)cc1`, the growth inhibition call is “inactive”.

On to `O=C(NC[C@H]1CCCO1)c1ccc[nH]1`, for which the growth inhibition call is “inactive”.

For the molecule `C[C@@H]1CCCCO[C@@H](CN(C)S(=O)(=O)c2ccccc2)[C@@H](C)CN([C@H](C)CO)C(=O)c2cc(NC(=O)NC3CCCCC3)ccc2O1`, the growth inhibition call was “inactive”.

Regarding `Cc1cc(-c2ccc(N=Nc3ccc4c(S(=O)(=O)[O-])cc(S(=O)(=O)[O-])c(N)c4c3O)c(C)c2)ccc1N=Nc1ccc2c(S(=O)(=O)[O-])cc(S(=O)(=O)[O-])c(N)c2c1O.[Na+].[Na+].[Na+].[Na+]`, the growth inhibition call was “inactive”.

Regarding `COCc1cc(C)nc2n[nH]c(N)c12`, the growth inhibition call is “inactive”.

`C[C@@H]1CN([C@@H](C)CO)C(=O)c2cc(NC(=O)Nc3ccccc3)ccc2O[C@@H](C)CCCCO[C@@H]1CN(C)C(=O)Nc1cccc2ccccc12`: the growth inhibition call is “inactive”.

`CCCNC(=O)N1C[C@]2(CCN(CC2)S(=O)(=O)c2ccc(cc2)OC)c2c(n(c3cc(ccc23)OC)C)[C@@H]1CO`: the growth inhibition call is “inactive”.

For `Cc1ccc(-c2cnc3c(c2)C(=O)N([C@H](C)CO)C[C@@H](C)[C@H](CN(C)C(=O)Cc2cccnc2)O3)cc1`, the growth inhibition call is “inactive”.

For `C[C@@H]1CN([C@H](C)CO)C(=O)c2cc(NC(=O)CCN3CCOCC3)ccc2O[C@@H]1CN(C)S(=O)(=O)c1ccc(Cl)cc1`, the growth inhibition call was “inactive”.

Take `Cc1ccccc1NC(=O)Nc1ccc(CC(=O)N(C)[C@@H](CC(C)C)C(=O)NCC[C@H](NC(=O)[C@@H]2CCCN2S(=O)(=O)c2cc(Cl)cc(Cl)c2)C(=O)O)cc1`: the growth inhibition call is “inactive”.

For the molecule `CC(C)(C)[S@](=O)N1Cc2cc(C(=O)NC3CCC3)nc(-c3cccc(-c4ccccc4F)c3)c2[C@@H]1CCO`, the growth inhibition call is “inactive”.

As for `C[C@H]1CN([C@@H](C)CO)C(=O)Cc2cc(NS(=O)(=O)c3cccs3)ccc2O[C@@H]1CN(C)Cc1ccncc1`, the growth inhibition call is “inactive”.

As for `COCC(=O)N(C)C[C@H]1Oc2cc(-c3ccc(C#N)cc3)ccc2S(=O)(=O)N([C@@H](C)CO)C[C@H]1C`, the growth inhibition call was “inactive”.

For the molecule `C[C@@H]1CN([C@H](C)CO)C(=O)Cc2cc(NS(=O)(=O)c3cccs3)ccc2O[C@@H]1CN(C)S(C)(=O)=O`, the growth inhibition call is “inactive”.

On to `Cc1noc(C)c1S(=O)(=O)Nc1ccc2c(c1)C(=O)N([C@H](C)CO)C[C@@H](C)[C@@H](CN(C)S(C)(=O)=O)OCCCC[C@H](C)O2`, for which the growth inhibition call is “inactive”.

For the molecule `C[C@@H]1CCCCO[C@@H](CN(C)S(=O)(=O)c2cccs2)[C@@H](C)CN([C@@H](C)CO)C(=O)c2cc(NC(=O)Cc3ccccc3)ccc2O1`, the growth inhibition call was “inactive”.

Turning to `COC[C@@H]1CNN1C(=O)OC(C)(C)C`, the growth inhibition call is “inactive”.

With `O=C(NCCCN1CCOCC1)[C@@H]1[C@@H](CO)[C@@H]2Cn3c(cccc3=O)[C@H]1N2C(=O)C1CCCC1`, the growth inhibition call was “inactive”.

As for `C[C@@H]1CN([C@H](C)CO)C(=O)c2cc(NC(=O)Cc3cn(C)c4ccccc34)ccc2O[C@@H]1CN(C)CC1CCCCC1`, the growth inhibition call is “inactive”.

Turning to `C[C@@H]1CCCCO[C@@H](CN(C)C(=O)C2CCCCC2)[C@H](C)CN([C@H](C)CO)C(=O)c2cc(NS(=O)(=O)c3ccccc3)ccc2O1`, the growth inhibition call is “inactive”.

Take `CC(Cc1cccc(C(F)(F)F)c1)NCCOC(=O)c1ccccc1.Cl` (stereo not given): the growth inhibition call is “inactive”.

For the molecule `CC(C)[C@@H](CO)N1C(=O)[C@@H]2[C@H]3C(=O)OCC=C[C@H]3O[C@]23C=CCN(c2ccc4ccccc4c2)C(=O)[C@@H]13`, the growth inhibition call is “inactive”.

For the molecule `CN1CCc2nc(C(=O)NC3CC(C(=O)N(C)C)CCC3NC(=O)C(=O)Nc3ccc(Cl)cn3)sc2C1.Cc1ccc(S(=O)(=O)O)cc1.O` (stereo not given), the growth inhibition call was “inactive”.

Regarding `COc1ccc(S(=O)(=O)N(C)C[C@H]2OCCCC[C@@H](C)Oc3ccc(NC(=O)Nc4ccc5c(c4)OCO5)cc3C(=O)N([C@@H](C)CO)C[C@H]2C)cc1`, the growth inhibition call was “inactive”.

For the molecule `Cc1ccc(S(=O)(=O)N(C)C[C@H]2OCCCC[C@@H](C)Oc3ccc(NC(=O)CCC(F)(F)F)cc3C(=O)N([C@@H](C)CO)C[C@@H]2C)cc1`, the growth inhibition call was “inactive”.

For the molecule `C[C@@H]1CN([C@@H](C)CO)C(=O)c2cc(NC(=O)C3CC3)ccc2O[C@@H]1CN(C)S(=O)(=O)c1cn(C)cn1`, the growth inhibition call is “inactive”.

Regarding `CC(=O)NCCc1ccc(O)c(-c2c(O)c(O)c3c(c2O)C(=O)c2c(cc(O)c(C(=O)O)c2C(=O)O)C3=O)c1`, the growth inhibition call was “inactive”.

Turning to `COCC#Cc1ccc2c(c1)O[C@@H](CN(C)S(=O)(=O)c1ccc(F)cc1)[C@H](C)CN([C@@H](C)CO)S2(=O)=O`, the growth inhibition call is “inactive”.

`COc1cc2c(Oc3ccc(NC(=O)C4(C(=O)Nc5ccc(F)cc5)CC4)cc3F)ccnc2cc1OCCCN1CCOCC1`: the growth inhibition call is “inactive”.

Turning to `COc1ccc(S(=O)(=O)N(C)C[C@@H]2Oc3ccc(NC(=O)Nc4c(C)noc4C)cc3C(=O)N([C@@H](C)CO)C[C@H]2C)cc1`, the growth inhibition call was “inactive”.

Take `COc1ccccc1C#Cc1ccc2c(c1)O[C@H](CN(C)Cc1ccncc1)[C@@H](C)CN([C@@H](C)CO)S2(=O)=O`: the growth inhibition call is “inactive”.

For `COCC(=O)N1C[C@H](C)[C@@H](OC)CN(C)C(=O)c2cc(NC(=O)Nc3cccc(F)c3)ccc2OC[C@@H]1C`, the growth inhibition call was “inactive”.

As to `O=C(C[C@@H]1CC[C@@H]2[C@H](COC[C@@H](O)CN2Cc2ccccc2F)O1)N[C@@H]1CCN(Cc2ccccc2)C1`, the growth inhibition call was “inactive”.

For the molecule `COc1cccc(NC(=O)N[C@H]2C=C[C@@H](CC(=O)N3CCOCC3)O[C@@H]2CO)c1`, the growth inhibition call is “inactive”.

With `C[C@@H]1CN([C@H](C)CO)C(=O)Cc2cc(NS(=O)(=O)c3ccccc3)ccc2O[C@@H]1CN(C)Cc1ccc(C(=O)O)cc1`, the growth inhibition call is “inactive”.

Take `C[C@@H]1CN([C@H](C)CO)C(=O)c2cc(-c3ccncc3)cnc2O[C@H]1CN(C)S(=O)(=O)c1ccccc1`: the growth inhibition call was “inactive”.

As to `C[C@H](CO)N1C[C@H](C)[C@H](CN(C)C(=O)CN2CCOCC2)Oc2ncc(/C=C/c3ccccc3)cc2C1=O`, the growth inhibition call was “inactive”.

(Values after the antibiotic and cytotoxicity screens of Wong et al. (2023).)
